# Laboratory results: PubChem BioAssay AID485364 (National Center for Advancing Translational Sciences (NCATS), 2010)
# The campaign covered roughly 360,000 compounds. About 11,000 (3.1%) were called active. Inconclusive results, whose numbers are uncertain, are shown with a selection of clear calls. Calls follow the shape of the dose curve; as a rule, active = well fitted inhibition curve with a large enough effect; inconclusive = small, poorly fitted or top-dose-only effect; inactive = no such curve, though single readings can be large or run the other way. No potency is given beside an inconclusive call; the fits are too rough.
# Target: Schistosoma mansoni thioredoxin glutathione reductase (TGR) (UniProt Q962Y6)
# Assay: qHTS Assay for the Inhibitors of Schistosoma Mansoni Peroxiredoxins; also: nearly all actives have a fitted effect of over 60% in size
# Settings: purified TGR, DTNB reduction, TNB absorbance 405 nm; series mostly up to 114 µM
# Outline: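 First, TGR (20 nM dispensed) and NADPH were mixed with compound. Second, a 15 min room-temperature incubation followed. Third, further NADPH and then DTNB were added to start the reaction. Finally, TNB absorbance was monitored kinetically.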
# Potency is read from the fitted curve at half-maximal effect; tags tell the direction and shape of the fitted curve.
row,Structure (SMILES),Potency
1,O=C(O)C1Nc2ccc(Br)cc2C2C=CCC12 (stereo unspecified),active: 0.891 µM
2,CN1CCc2nc3sc(C(=O)C45CC6CC(CC(C6)C4)C5)c(N)c3cc2C1,"inconclusive [inhibitor, partial curve]"
3,COc1cc(C(=O)Nc2ccc(S(=O)(=O)NC(C)C)cc2)cc(OC)c1OC,inactive
4,NC(=O)c1c(NC(NC(=O)c2ccco2)C(=O)c2ccc(Cl)cc2)sc2c1CCCC2 (stereo unspecified),active: 31.6 µM
5,O=C(NC(=S)Nc1nc(-c2ccc(Br)cc2)cs1)c1ccco1,"inconclusive [inhibitor, single point]"
6,CCN1CCN(C(=O)/C=C/c2ccc(C)o2)CC1,"inconclusive [inhibitor, partial curve]"
7,O=C1NC(=O)C2(Cc3ccccc3N3CCCC32)C(=O)N1c1cccc(Cl)c1 (stereo unspecified),"inconclusive [inhibitor, partial curve]"
8,S=c1[nH]cc(-c2ccc(Cl)cc2)n1Cc1ccccc1,inactive
9,COCCCNC(=S)N1CCN(c2nc3ccccc3s2)CC1,inactive
10,CC(C)Cc1cc(C(=O)NCc2ccco2)no1,"inconclusive [inhibitor, partial curve]"
11,COc1ccc2nc3cccc(OC)c3nc2c1,active: 20 µM
12,CCOC(=O)c1cc2sc(C)cc2n1CC(=O)Nc1cccc(C)c1C,inactive
13,S=C(NCc1ccncc1)Nc1ccc(Cl)cc1Cl,active: 35.5 µM
14,NC(N)=NS(=O)(=O)c1ccc(NC(=S)NC(=O)Cc2ccc(Cl)cc2)cc1,"inconclusive [inhibitor, partial curve]"
15,COc1cc(NC(=O)COCc2cc(-c3ccc4c(c3)OCO4)on2)cc(OC)c1,inactive
16,Cc1ccc(-c2nc(CS(=O)CC(=O)N3CCN(c4ncccn4)CC3)c(C)o2)cc1 (stereo unspecified),active: 7.08 µM
17,CC1CCN(c2nc(-c3ccco3)c3c(c2C#N)CC(C)(C)OC3)CC1,"inconclusive [inhibitor, partial curve, poor fit]"
18,O=C1C=CC(=O)N1Cc1ccccc1,"inconclusive [inhibitor, full curve, poor fit]"
19,CCn1nc(C)cc1C(=O)OCC(=O)c1ccc(Cl)cc1,inactive
20,CCC(C)(C)n1nnnc1C(C(C)C)N(Cc1ccco1)Cc1cc2cc3c(cc2[nH]c1=O)OCO3 (stereo unspecified),"inconclusive [inhibitor, partial curve]"
21,CCOC(=O)Cc1csc(NC(=O)NC2(C(F)(F)F)Oc3cc(Cl)c(Cl)cc3O2)n1,"inconclusive [inhibitor, partial curve, poor fit]"
